# Results taken from the supplement of paper PMC8728848.
# Some of the results follow.
# How the values were obtained:
# Assay in all cases: glycan array binding signal (z-score within array); higher = stronger binding
# Conditions in all cases: glycan notation: IUPAC condensed, linker removed
# [1] = target: Gal(b1-3)[Fuc(a1-4)]GlcNAc(b1-3)Gal(b1-4)[Fuc(a1-3)]GlcNAc
# Summary of the method: (§1)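 Negative Z-scores can be read as non-binding. The Z-score is calculated within each array and then averaged across arrays of one protein sequence at different concentrations or buffers and across linkers. Arrays, 3228 in all, were curated from the Consortium for Functional Glycomics database and kept only where the protein sequence was available.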
# [2] = target: Gal(b1-3)[GlcNAc(b1-6)]GalNAc
# Summary of the method: as §1
# [3] = target: Gal(b1-3)[Neu5Ac(a2-6)]GalNAc
# Summary of the method: as §1
# [4] = target: Gal(b1-3)[Neu5Ac(a2-6)]GlcNAc(b1-6)Gal(b1-4)Glc
# Summary of the method: as §1
# [5] = target: Gal(b1-3)[Neu5Ac(b2-6)]GalNAc
# Summary of the method: as §1
# [6] = target: Gal(b1-4)GalNAc(a1-3)[Fuc(a1-2)]Gal(b1-4)GlcNAc
# Summary of the method: as §1
# [7] = target: Gal(b1-4)GalNAc(b1-3)[Fuc(a1-2)]Gal(b1-4)GlcNAc
# Summary of the method: as §1
# Gal(b1-4)Glc = target: Gal(b1-4)Glc
# Summary of the method: as §1
# Gal(b1-4)Glc6S = target: Gal(b1-4)Glc6S
# Summary of the method: as §1
# Gal(b1-4)GlcNAc = target: Gal(b1-4)GlcNAc
# Summary of the method: as §1
# [8] = target: Gal(b1-4)GlcNAc(a1-6)Gal(b1-4)GlcNAc
# Summary of the method: as §1
# [9] = target: Gal(b1-4)GlcNAc(b1-2)Man(a1-3)[Gal(b1-4)GlcNAc(b1-2)Man(a1-6)]Man(b1-4)GlcNAc(b1-4)GlcNAc
# Summary of the method: as §1
# [10] = target: Gal(b1-4)GlcNAc(b1-3)Gal(b1-3)GlcNAc
# Summary of the method: as §1
# [11] = target: Gal(b1-4)GlcNAc(b1-3)Gal(b1-4)Glc
# Summary of the method: as §1
# [12] = target: Gal(b1-4)GlcNAc(b1-3)Gal(b1-4)GlcNAc
# Summary of the method: as §1
# [13] = target: Gal(b1-4)GlcNAc(b1-3)Gal(b1-4)GlcNAc(b1-3)Gal(b1-4)GlcNAc
# Summary of the method: as §1
# [14] = target: Gal(b1-4)GlcNAc(b1-3)Gal(b1-4)[Fuc(a1-3)]GlcNAc(b1-3)Gal(b1-4)[Fuc(a1-3)]GlcNAc
# Summary of the method: as §1
# [15] = target: Gal(b1-4)GlcNAc(b1-3)GalNAc
# Summary of the method: as §1
# [16] = target: Gal(b1-4)GlcNAc(b1-3)[Gal(b1-4)GlcNAc(b1-6)]Gal(b1-4)GlcNAc
# Summary of the method: as §1
# [17] = target: Gal(b1-4)GlcNAc(b1-3)[GlcNAc(b1-6)]Gal(b1-4)GlcNAc
# Summary of the method: as §1
# [18] = target: Gal(b1-4)GlcNAc(b1-6)Gal(b1-4)GlcNAc
# Summary of the method: as §1
# [19] = target: Gal(b1-4)GlcNAc(b1-6)Gal(b1-4)GlcNAc(b1-6)GalNAc
# Summary of the method: as §1
# [20] = target: Gal(b1-4)GlcNAc(b1-6)GalNAc
# Summary of the method: as §1
# [21] = target: Gal(b1-4)GlcNAc(b1-6)[Gal(b1-3)]GalNAc
# Summary of the method: as §1
# Gal3S(b1-3)GalNAc = target: Gal3S(b1-3)GalNAc
# Summary of the method: as §1
# Gal3S(b1-3)GlcNAc = target: Gal3S(b1-3)GlcNAc
# Summary of the method: as §1
# [22] = target: Gal3S(b1-3)[Fuc(a1-4)]GlcNAc
# Summary of the method: as §1
# Gal3S(b1-4)Glc = target: Gal3S(b1-4)Glc
# Summary of the method: as §1
# Gal3S(b1-4)Glc6S = target: Gal3S(b1-4)Glc6S
# Summary of the method: as §1
# Gal3S(b1-4)GlcNAc = target: Gal3S(b1-4)GlcNAc
# Summary of the method: as §1
# Gal3S(b1-4)GlcNAc6S = target: Gal3S(b1-4)GlcNAc6S
# Summary of the method: as §1
# [23] = target: Gal3S(b1-4)[Fuc(a1-3)]Glc
# Summary of the method: as §1
# Gal3S4S(b1-4)GlcNAc = target: Gal3S4S(b1-4)GlcNAc
# Summary of the method: as §1
# Gal3S6S(b1-4)GlcNAc = target: Gal3S6S(b1-4)GlcNAc
# Summary of the method: as §1
# Gal3S6S(b1-4)GlcNAc6S = target: Gal3S6S(b1-4)GlcNAc6S
# Summary of the method: as §1
# Gal4S(b1-4)GlcNAc = target: Gal4S(b1-4)GlcNAc
# Summary of the method: as §1
# Gal4S6S(b1-4)GlcNAc = target: Gal4S6S(b1-4)GlcNAc
# Summary of the method: as §1
binder,measurement,setting,value
Surfactant Protein D (rat); Neck + Carbohydrate Recognition Domain (NCRD) (Rattus norvegicus) (protein) MLLFLLSALVLLTQPLGYLEAEMKTYSHRTMPSACTLVMCSSVESGLPGRDGRDGREGPRGEKGDPGLPGAAGQAGMPGQAGPVGPKGDNGSVGEPGPKGDTGPSGPPGPPGVPGPAGREGALGKQGNIGPQGKPGPKGEAGPKGEVGAPGMQGSAGARGAGPKGERGVPGERGVPGNTGAAGSAGAMGPQGSPGARGPPGLKGDKGIPGDKGAKGESGLPDVASLRQQVEALQGQVQHLQAAFSQYKKVELFPNGQSVGEKIFKTAGFVKPFTEAQLLCTQAGGQLASPRSAAENAALQQLVVAKNEAAFLSMTDSKTEGKFTYPTGESLVYSNWAPGEPNDDGGSEDCVEIFTNGKWNDRACGEKRLVVCEF,glycan array binding signal (z-score),[1],-0.187
same,glycan array binding signal (z-score),[2],-0.164
same,glycan array binding signal (z-score),[3],-0.242
same,glycan array binding signal (z-score),[4],-0.22
same,glycan array binding signal (z-score),[5],-0.253
same,glycan array binding signal (z-score),[6],-0.22
same,glycan array binding signal (z-score),[7],-0.02
same,glycan array binding signal (z-score),Gal(b1-4)Glc,-0.236
same,glycan array binding signal (z-score),Gal(b1-4)Glc6S,-0.209
same,glycan array binding signal (z-score),Gal(b1-4)GlcNAc,0.481
same,glycan array binding signal (z-score),[8],-0.248
same,glycan array binding signal (z-score),[9],-0.222
same,glycan array binding signal (z-score),[10],-0.189
same,glycan array binding signal (z-score),[11],-0.078
same,glycan array binding signal (z-score),[12],-0.126
same,glycan array binding signal (z-score),[13],-0.187
same,glycan array binding signal (z-score),[14],-0.196
same,glycan array binding signal (z-score),[15],-0.199
same,glycan array binding signal (z-score),[16],-0.165
same,glycan array binding signal (z-score),[17],-0.149
same,glycan array binding signal (z-score),[18],-0.238
same,glycan array binding signal (z-score),[19],-0.183
same,glycan array binding signal (z-score),[20],-0.202
same,glycan array binding signal (z-score),[21],-0.232
same,glycan array binding signal (z-score),Gal3S(b1-3)GalNAc,0.086
same,glycan array binding signal (z-score),Gal3S(b1-3)GlcNAc,0.062
same,glycan array binding signal (z-score),[22],0.133
same,glycan array binding signal (z-score),Gal3S(b1-4)Glc,-0.229
same,glycan array binding signal (z-score),Gal3S(b1-4)Glc6S,0.086
same,glycan array binding signal (z-score),Gal3S(b1-4)GlcNAc,-0.109
same,glycan array binding signal (z-score),Gal3S(b1-4)GlcNAc6S,0.012
same,glycan array binding signal (z-score),[23],-0.007
same,glycan array binding signal (z-score),Gal3S4S(b1-4)GlcNAc,-0.238
same,glycan array binding signal (z-score),Gal3S6S(b1-4)GlcNAc,0.163
same,glycan array binding signal (z-score),Gal3S6S(b1-4)GlcNAc6S,0.116
same,glycan array binding signal (z-score),Gal4S(b1-4)GlcNAc,-0.243
same,glycan array binding signal (z-score),Gal4S6S(b1-4)GlcNAc,-0.173
